Reference: PubChem BioAssay AID686978 (National Center for Advancing Translational Sciences (NCATS), 2013)
Values joined by “and” are separate entries in the source; they are usually repeats but may differ in a detail not shown here. Equal entries are not always repeated. Among all 420,000 compounds or so, about 64,000 (15%) were called active. The inconclusive results got no clear call from the source; some entries with a clear call stand among them for comparison. Calls come from the whole dose curve; as a rule, active = well fitted inhibition curve with a large enough effect; inconclusive = small, poorly fitted or top-dose-only effect; inactive = flat fitted curve, though single readings scatter. Where the call is inconclusive, the potency comes from a doubtful curve fit.

Experiment: qHTS for Inhibitors of human tyrosyl-DNA phosphodiesterase 1 (TDP1): qHTS in cells in absence of CPT; note: nearly all actives have a fitted effect of over 55% in size
Settings: DT40 Tdp1-/- hTDP1 cells, no CPT, ATP luminescence, 48 h; activity change, negative = growth inhibition: at 46.2 µM (top of the series)
Method in brief: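 Cells were dispensed at 400 per well, compounds added by pin tool, plates incubated ≥48 hr at 37 °C, then CellTiter-Glo added for 30 min at room temperature before luminescence reading. Line: DT40 Tdp1-/- complemented with hTDP1; camptothecin omitted.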
% is set by controls: 0 for no effect and ±100 for the full control effect; potency is the fitted concentration of half-maximal effect; tags give direction and shape of the fitted curve.

SMILES	Potency	activity change, negative = growth inhibition
CN(Cc1c(C(=O)N/N=C/c2cccc(F)c2)nnn1-c1nonc1N)c1ccccc1	inconclusive: 16.4 µM [inhibitor, single point]	
Cc1cccc(Oc2nc(CN3CCOCC3)nc3sc4c(c23)CCCC4)c1	inconclusive: 29.1 µM [inhibitor, single point]	
C=CCn1c(SCC(=O)Nc2ccccc2)nnc1-c1cccc(S(=O)(=O)N2CCOCC2)c1		inconclusive: -32.3% [inhibitor]
COc1cccc(CNC(=O)Cn2c(=O)n3nc(-c4cccc(F)c4)nc3c3ccccc32)c1		inactive: -13.4%
CCN(CC)C(=O)c1sc2c(c1C)c(=O)n(-c1ccc(Cl)c(Cl)c1)c(=O)n2Cc1cc(=O)n2ccccc2n1	inconclusive: 1.3 µM [inhibitor, full curve]	
CCOC(=O)c1ccc2[nH]c3c(c2c1)CCCCC3=O	inconclusive: 13 µM [inhibitor, partial curve]	
O=S(=O)(c1cccs1)N1CN(Cc2ccccc2)c2nc3ccccc3nc21	inconclusive: 20.6 µM [inhibitor, single point]	
FC(F)(F)c1cccc(-c2noc(CN3CCOCC3)n2)c1		inactive: -15.6%
CN(C)C(=O)NC1CCCCCCCCCCC1	inconclusive: 25.9 µM [inhibitor, single point]	
COc1ccc(OC)c(NC(=O)CSc2ncnc3c2cnn3-c2ccccc2Cl)c1	active: 1.3 µM	
CC(=O)Nc1ccc(S(=O)(=O)N2CCC(c3nnc(-c4ccc(C)cc4)o3)CC2)cc1	active: 20.6 µM	
COc1cc(CN2CCN(c3ccccc3F)CC2)c([N+](=O)[O-])cc1OC		inactive: -22.7%
Cc1oc2c(cc(NS(=O)(=O)c3ccc(C(C)C)cc3)c3ccccc32)c1C(=O)O	inactive	
CCOc1ccc(C(=O)Nc2ccccc2CC)cc1[N+](=O)[O-]		inactive: -21.2%
COc1cc(-c2nc3cnccn3c2Nc2ccc(C)cc2)ccc1O	inconclusive: 23.1 µM [inhibitor, single point]	
Cc1sc(NC(=O)C2C3CCC(O3)C2C(=O)O)c(C(=O)OC(C)C)c1-c1ccc(Cl)cc1 (stereo unspecified)	inconclusive: 32.6 µM [inhibitor, single point]	
COc1ccc(NC(=O)CCS(=O)(=O)c2ccc3c(c2)NC(=O)C(C)S3)cc1OC (stereo unspecified)	inconclusive: 32.6 µM [inhibitor, single point]	
C=CC[C@H](CC(=O)NCCO)C(=O)N[C@H](COC(=O)[C@@H](CC=C)Cc1ccc(F)cc1)C(C)(C)C	active: 18.4 µM	
COc1ccccc1NS(=O)(=O)c1ccc(Cl)c(NC(=O)CN2C(=O)c3ccccc3C2=O)c1		inactive: -0.299%
COc1cc(CN2CC(=O)N(c3cccc(Cl)c3C)C2=S)cc(OC)c1OC	inconclusive: 11.6 µM [inhibitor, partial curve]	
COC(=O)C1=C(O)/C(=C\c2ccc(CNC(=O)C(=O)Nc3ccc(C)cc3)o2)N=C1C	inconclusive: 18.4 µM [inhibitor, single point]	
CN1C(=O)C2(CCCCC2)C1c1ccccc1 (stereo unspecified)		inactive: -9.79%
Cc1ccc(-c2cc(C(=O)N3CCOCC3)no2)cc1		inactive: -1.49%
O=C(Cn1c(=O)n(CCCS(=O)(=O)C2CCCCC2)c(=O)c2ccccc21)Nc1ccccc1C(F)(F)F	inconclusive: 29.1 µM [inhibitor, single point]	

SMILES	Potency	activity change, negative = growth inhibition
O=C(CSc1nnc(Cc2ccccc2)n1-c1cccc(Cl)c1)NNC(=O)Cc1ccccc1		inactive: -15.5%
O=C1/C(=C/c2ccncc2)SC(=S)N1N1CCOCC1	inconclusive: 20.6 µM [inhibitor, single point]	
O=C(NNC(=O)c1ccccc1F)c1ccc(-c2ccccc2Cl)o1	inconclusive: 18.4 µM [inhibitor, single point]	
O=C(Nc1nnc(CCc2ccccc2)s1)C1CCN(C(=O)c2ccco2)CC1	inconclusive: 15.8 µM [inhibitor, single point]	
COc1ccc(NC(=O)CCn2c(=O)c3cccn3c3cccnc32)cc1Cl		inactive: -23.6%
CCOC(=O)c1[nH]cnc1C(=O)NCc1ccccc1		inactive: 0.101%
O=S(=O)(/C=C/c1ccccc1)N1CCN(c2cccc(Cl)c2)CC1		inactive: -6.16%
Cc1ccc(S(=O)(=O)Nc2cc(C(F)(F)F)ccc2N2CCOCC2)cc1		inconclusive: -34.5% [inhibitor]
Cc1cccc(C(O)c2ncc(-c3cccc(C(F)(F)F)c3)[nH]2)c1C (stereo unspecified)	inconclusive: 11.6 µM [inhibitor, partial curve]	
O=C(c1csnn1)N1CCC[C@@]2(CCN(c3ncccn3)C2)C1		inactive: -8.31%
CCc1ccc2[nH]c(=O)c(CN(Cc3ccccc3)Cc3nnnn3Cc3ccco3)cc2c1	active: 16.4 µM	
C/C(=N\NS(=O)(=O)c1cccc([N+](=O)[O-])c1)c1cccnc1		inactive: -9.18%
CC1C(=O)N(c2ccc(S(=O)(=O)N(C)C)cc2)C1(/C=C/c1ccccc1)C(=O)NC1CCCC1 (stereo unspecified)	inconclusive: 29.1 µM [inhibitor, single point]	
c1ccc2c(c1)OC(CCCN1CCCCC1)c1ccccc1S2 (stereo unspecified)	inconclusive: 23.1 µM [inhibitor, single point]	
O=C(NCc1ccccc1)c1cc(C2CCCCN2C(=O)c2ccccc2)on1 (stereo unspecified)	active: 13 µM	
CCOC(=O)C1=C(CN2CCc3ccccc32)NC(=O)NC1c1cccc([N+](=O)[O-])c1 (stereo unspecified)	inconclusive: 35.5 µM [inhibitor, single point]	
CC(C)[C@H](NC(=O)OC(C)(C)C)c1cc(C(=O)NCCO)c(N)s1		inactive: -6.98%
COC(=O)c1sc2ncccc2c1-n1c(C)ccc1C	inconclusive: 18.4 µM [inhibitor, partial curve]	
COc1ccccc1CNS(=O)(=O)c1ccc2c(c1)CC(=O)N2C	inconclusive: 16.4 µM [inhibitor, single point]	
COC(=O)CN1C(=O)C2(C(C#N)=C(N)Oc3n[nH]c(-c4cccs4)c32)c2ccccc21 (stereo unspecified)		inactive: -21.6%
O=C(COc1ccc(Cl)cc1)Nc1ccc(Cc2ccncc2)cc1	inconclusive: 16.4 µM [inhibitor, partial curve, poor fit]	
COc1ccc(CNC(=O)C2=C(C)C(=O)OC23CCCCC3)cc1		inactive: -12.9%
COc1cccc(CCNC(=O)c2cc(COc3ccc(C)c(C)c3)on2)c1OC	active: 14.6 µM	
Cc1ccc2oc3c(c(=O)c2c1)C(c1ccccc1F)N(CCCN(C)C)C3=O (stereo unspecified)		inactive: -1.94%

SMILES	Potency	activity change, negative = growth inhibition
CCOC(=O)N1CCN(C(=O)c2ccc(C)c(S(=O)(=O)Nc3cccc(C)c3C)c2)CC1	inconclusive: 14.6 µM [inhibitor, single point]	
CCOc1ccccc1NC(=O)C(CC)Sc1nc2ncccc2[nH]1 (stereo unspecified)	inconclusive: 29.1 µM [inhibitor, single point]	
Cc1cc(F)ccc1NC(=O)CCc1ccc(S(=O)(=O)N2CCOCC2)cc1		inactive: 0.945%
COC(=O)c1ccc(N2CCC(c3cc(-c4ccc(OC)cc4)n[nH]3)CC2)c([N+](=O)[O-])c1	active: 18.4 µM	
O=C(NCc1ccc2c(c1)CCN2C(=O)c1ccccc1)c1ccccc1	inconclusive: 29.1 µM [inhibitor, single point]	
CCC1CN(C(=O)Nc2cccc3c2CCCC3)c2cc(Cl)ccc2O1 (stereo unspecified)	active: 20.6 µM	
Cc1cccc(NC(=O)CSc2nnnn2-c2ccc3c(c2)OCCO3)n1	inconclusive: 25.9 µM [inhibitor, single point]	
O=C(O)CSC1CC(=O)N(c2ccc(Cl)c(Cl)c2)C1=O (stereo unspecified)		inactive: -27%
O=C(NCCCN1CCOCC1)c1ccc2c(=O)n(Cc3cccc(Br)c3)c(=S)[nH]c2c1	inconclusive: 20.6 µM [inhibitor, partial curve, poor fit]	
O=C(Nc1cc(C(F)(F)F)ccc1-n1cncn1)c1ccc([N+](=O)[O-])o1	active: 20.6 µM	
COc1ccc(CCNC(=O)CSc2cn(CCNC(=O)c3cccc(C(F)(F)F)c3)c3ccccc23)cc1OC	active: 14.6 µM	
CC(=O)c1cccc(OCC(=O)Nc2cccc(C(=O)Nc3c(C)n(C)n(-c4ccccc4)c3=O)c2)c1	inconclusive: 29.1 µM [inhibitor, single point]	
CC(=O)Nc1ccc(S(=O)(=O)N2CCN(c3nc4ccccc4n3CC(C)C)CC2)cc1	inconclusive: 25.9 µM [inhibitor, single point]	
O=C1N=c2ccc([N+](=O)[O-])cc2=C1c1sc(=O)[nH]c1O	inconclusive: 25.9 µM [inhibitor, single point]	
Cc1ccc2nc(Br)c3c(c2c1)OC(CBr)C3 (stereo unspecified)	inconclusive: 25.9 µM [inhibitor, single point]	
COc1ccc(NC(=O)c2c(-c3ccccc3)noc2C)c(OC)c1		inactive: -29.1%
CC(=O)C1=C(O)C(=O)N(CC#N)C1c1cccs1 (stereo unspecified)		inactive: -17.4%
NC(=O)COc1ccc(-n2cnnn2)cc1		inactive: 5.34%
COc1cccc(CNC(=O)Cc2csc(NC(=O)Nc3ccccc3OC)n2)c1	active: 20.6 µM	
Cc1ccc(SCC(=O)Nc2ccccc2N2CCOCC2)cc1	inconclusive: 18.4 µM [inhibitor, single point]	
Cc1ccc(-n2nnnc2-c2ccccc2)cc1		inconclusive: -31.7% [inhibitor]
Cc1oc(-c2ccccc2Cl)nc1CS(=O)CC(=O)NCc1ccc(Cl)cc1 (stereo unspecified)	inconclusive: 29.1 µM [inhibitor, single point] and inconclusive: 13 µM [inhibitor, partial curve]	
Cc1ccc(Nc2nc(NCc3ccco3)nc3nccnc23)cc1C	inconclusive: 2 µM [inhibitor, full curve, poor fit]	
